Measured values: paper PMC12820563
The other results are listed elsewhere or left out. The list includes weakly bound sequences.

molecular target: T1, MBP-FoxP3dN (UniProt Q99JB6); test: PD-seq (MBP pull-down with sequencing); conditions: 20 mM Tris-HCl pH 7.5, 100 mM NaCl, 1.5 mM MgCl2, 0.4 uM protein, 0.1 uM dsDNA library, 30 min, room temperature, amylose pull-down; high values mean tight binding; double strand, one strand shown
T1 sequence: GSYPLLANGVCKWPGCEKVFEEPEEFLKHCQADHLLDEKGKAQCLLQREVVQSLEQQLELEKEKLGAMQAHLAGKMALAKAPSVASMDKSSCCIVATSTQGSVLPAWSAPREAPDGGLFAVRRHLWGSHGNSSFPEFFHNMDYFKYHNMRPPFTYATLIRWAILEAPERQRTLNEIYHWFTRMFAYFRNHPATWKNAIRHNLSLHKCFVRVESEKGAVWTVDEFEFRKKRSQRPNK

Sequence	binding signal (RPM ratio (pull-down/input))
GATGATTGTTCTCCCAGCTGATGAATTTTTATGCTCGAGTAAACAAATTTTCCTAATCTTTCTGTTCAAGCGCCATCTAC	0.454
GATGATTGTTCTCCCAGCTGATGAATTGCTTCCTTCGAGTAAACAAATTTTCCTAATCTTTCTGTTCAAGCGCCATCTAC	0.578
GATGATTGTTCTCCCAGCTGATGAATTACGTCGCTCGAGTAAACAAATTTTCCTAATCTTTCTGTTCAAGCGCCATCTAC	0.512
GATGATTGTTCTCCCAGCTGATGAATTCATCGGATCGAGTAAACAAATTTTCCTAATCTTTCTGTTCAAGCGCCATCTAC	0.235
GATGATTGTTCTCCCAGCTGATGAATTCTACTTGTCGAGTAAACAAATTTTCCTAATCTTTCTGTTCAAGCGCCATCTAC	0.783
GATGATTGTTCTCCCAGCTGATGAATTTGCAACATCGAGTAAACAAATTTTCCTAATCTTTCTGTTCAAGCGCCATCTAC	5.28
GATGATTGTTCTCCCAGCTGATGAATTGAGCGCCTCGAGTAAACAAATTTTCCTAATCTTTCTGTTCAAGCGCCATCTAC	1.18
GATGATTGTTCTCCCAGCTGATGAATTGATCCTATCGAGTAAACAAATTTTCCTAATCTTTCTGTTCAAGCGCCATCTAC	0.403
GATGATTGTTCTCCCAGCTGATGAATTTGATATTTCGAGTAAACAAATTTTCCTAATCTTTCTGTTCAAGCGCCATCTAC	4.48
GATGATTGTTCTCCCAGCTGATGAATTCTCTTTATCGAGTAAACAAATTTTCCTAATCTTTCTGTTCAAGCGCCATCTAC	0.763
GATGATTGTTCTCCCAGCTGATGAATTGGGGGAATCGAGTAAACAAATTTTCCTAATCTTTCTGTTCAAGCGCCATCTAC	0.299
GATGATTGTTCTCCCAGCTGATGAATTCCCTCGTTCGAGTAAACAAATTTTCCTAATCTTTCTGTTCAAGCGCCATCTAC	0.294
GATGATTGTTCTCCCAGCTGATGAATTCGCAAATTCGAGTAAACAAATTTTCCTAATCTTTCTGTTCAAGCGCCATCTAC	0.359
GATGATTGTTCTCCCAGCTGATGAATTTTGCTCATCGAGTAAACAAATTTTCCTAATCTTTCTGTTCAAGCGCCATCTAC	0.551
GATGATTGTTCTCCCAGCTGATGAATTCTAAAGGTCGAGTAAACAAATTTTCCTAATCTTTCTGTTCAAGCGCCATCTAC	0.2
GATGATTGTTCTCCCAGCTGATGAATTCCCTATGTCGAGTAAACAAATTTTCCTAATCTTTCTGTTCAAGCGCCATCTAC	0.282
GATGATTGTTCTCCCAGCTGATGAATTTAACCCGTCGAGTAAACAAATTTTCCTAATCTTTCTGTTCAAGCGCCATCTAC	0.274
GATGATTGTTCTCCCAGCTGATGAATTGTTTCCATCGAGTAAACAAATTTTCCTAATCTTTCTGTTCAAGCGCCATCTAC	1.14
GATGATTGTTCTCCCAGCTGATGAATTATTCGCATCGAGTAAACAAATTTTCCTAATCTTTCTGTTCAAGCGCCATCTAC	1.12
GATGATTGTTCTCCCAGCTGATGAATTCTTTGTTTCGAGTAAACAAATTTTCCTAATCTTTCTGTTCAAGCGCCATCTAC	0.575
GATGATTGTTCTCCCAGCTGATGAATTCGCAGCATCGAGTAAACAAATTTTCCTAATCTTTCTGTTCAAGCGCCATCTAC	1.05

Sequence	binding signal (RPM ratio (pull-down/input))
GATGATTGTTCTCCCAGCTGATGAATTGAAACTTTCGAGTAAACAAATTTTCCTAATCTTTCTGTTCAAGCGCCATCTAC	0.34
GATGATTGTTCTCCCAGCTGATGAATTACAGCTGTCGAGTAAACAAATTTTCCTAATCTTTCTGTTCAAGCGCCATCTAC	0.442
GATGATTGTTCTCCCAGCTGATGAATTCAAGTTCTCGAGTAAACAAATTTTCCTAATCTTTCTGTTCAAGCGCCATCTAC	0.403
GATGATTGTTCTCCCAGCTGATGAATTTGATTTTTCGAGTAAACAAATTTTCCTAATCTTTCTGTTCAAGCGCCATCTAC	2.9
GATGATTGTTCTCCCAGCTGATGAATTTAGTTCGTCGAGTAAACAAATTTTCCTAATCTTTCTGTTCAAGCGCCATCTAC	1.06
GATGATTGTTCTCCCAGCTGATGAATTGTAACTATCGAGTAAACAAATTTTCCTAATCTTTCTGTTCAAGCGCCATCTAC	1.17
GATGATTGTTCTCCCAGCTGATGAATTCCTTGCCTCGAGTAAACAAATTTTCCTAATCTTTCTGTTCAAGCGCCATCTAC	0.36
GATGATTGTTCTCCCAGCTGATGAATTATACCGCTCGAGTAAACAAATTTTCCTAATCTTTCTGTTCAAGCGCCATCTAC	0.371
GATGATTGTTCTCCCAGCTGATGAATTGTGCACCTCGAGTAAACAAATTTTCCTAATCTTTCTGTTCAAGCGCCATCTAC	2.92
GATGATTGTTCTCCCAGCTGATGAATTCGCCTGTTCGAGTAAACAAATTTTCCTAATCTTTCTGTTCAAGCGCCATCTAC	0.767
GATGATTGTTCTCCCAGCTGATGAATTTTTACCTTCGAGTAAACAAATTTTCCTAATCTTTCTGTTCAAGCGCCATCTAC	0.223
GATGATTGTTCTCCCAGCTGATGAATTGAATCAATCGAGTAAACAAATTTTCCTAATCTTTCTGTTCAAGCGCCATCTAC	0.391
GATGATTGTTCTCCCAGCTGATGAATTACCCAAATCGAGTAAACAAATTTTCCTAATCTTTCTGTTCAAGCGCCATCTAC	0.259
GATGATTGTTCTCCCAGCTGATGAATTATAGGTGTCGAGTAAACAAATTTTCCTAATCTTTCTGTTCAAGCGCCATCTAC	0.644
GATGATTGTTCTCCCAGCTGATGAATTTCCTTCCTCGAGTAAACAAATTTTCCTAATCTTTCTGTTCAAGCGCCATCTAC	0.282
GATGATTGTTCTCCCAGCTGATGAATTTAGTTAATCGAGTAAACAAATTTTCCTAATCTTTCTGTTCAAGCGCCATCTAC	0.584
GATGATTGTTCTCCCAGCTGATGAATTGGCTGTCTCGAGTAAACAAATTTTCCTAATCTTTCTGTTCAAGCGCCATCTAC	1.29
GATGATTGTTCTCCCAGCTGATGAATTCGTAAAGTCGAGTAAACAAATTTTCCTAATCTTTCTGTTCAAGCGCCATCTAC	0.256
GATGATTGTTCTCCCAGCTGATGAATTATAAACTTCGAGTAAACAAATTTTCCTAATCTTTCTGTTCAAGCGCCATCTAC	0.499
GATGATTGTTCTCCCAGCTGATGAATTCGTCCCTTCGAGTAAACAAATTTTCCTAATCTTTCTGTTCAAGCGCCATCTAC	0.784
GATGATTGTTCTCCCAGCTGATGAATTATTAGATTCGAGTAAACAAATTTTCCTAATCTTTCTGTTCAAGCGCCATCTAC	0.333

Sequence	binding signal (RPM ratio (pull-down/input))
GATGATTGTTCTCCCAGCTGATGAATTCTCCGAATCGAGTAAACAAATTTTCCTAATCTTTCTGTTCAAGCGCCATCTAC	0.176
GATGATTGTTCTCCCAGCTGATGAATTACTGTAGTCGAGTAAACAAATTTTCCTAATCTTTCTGTTCAAGCGCCATCTAC	0.484
GATGATTGTTCTCCCAGCTGATGAATTATATCCCTCGAGTAAACAAATTTTCCTAATCTTTCTGTTCAAGCGCCATCTAC	0.537
GATGATTGTTCTCCCAGCTGATGAATTCTACTTTTCGAGTAAACAAATTTTCCTAATCTTTCTGTTCAAGCGCCATCTAC	0.444
GATGATTGTTCTCCCAGCTGATGAATTGACAAGGTCGAGTAAACAAATTTTCCTAATCTTTCTGTTCAAGCGCCATCTAC	0.246
GATGATTGTTCTCCCAGCTGATGAATTTAAACGGTCGAGTAAACAAATTTTCCTAATCTTTCTGTTCAAGCGCCATCTAC	0.263
GATGATTGTTCTCCCAGCTGATGAATTACCTACATCGAGTAAACAAATTTTCCTAATCTTTCTGTTCAAGCGCCATCTAC	0.508
GATGATTGTTCTCCCAGCTGATGAATTGTAGCGGTCGAGTAAACAAATTTTCCTAATCTTTCTGTTCAAGCGCCATCTAC	0.618
GATGATTGTTCTCCCAGCTGATGAATTTTGATTGTCGAGTAAACAAATTTTCCTAATCTTTCTGTTCAAGCGCCATCTAC	4.74
GATGATTGTTCTCCCAGCTGATGAATTCTGTAGATCGAGTAAACAAATTTTCCTAATCTTTCTGTTCAAGCGCCATCTAC	0.912
GATGATTGTTCTCCCAGCTGATGAATTATCAGGTTCGAGTAAACAAATTTTCCTAATCTTTCTGTTCAAGCGCCATCTAC	0.267
GATGATTGTTCTCCCAGCTGATGAATTCACTACCTCGAGTAAACAAATTTTCCTAATCTTTCTGTTCAAGCGCCATCTAC	0.315
GATGATTGTTCTCCCAGCTGATGAATTTACGGAGTCGAGTAAACAAATTTTCCTAATCTTTCTGTTCAAGCGCCATCTAC	0.322
GATGATTGTTCTCCCAGCTGATGAATTCAAACCCTCGAGTAAACAAATTTTCCTAATCTTTCTGTTCAAGCGCCATCTAC	0.269
GATGATTGTTCTCCCAGCTGATGAATTGGGGGATTCGAGTAAACAAATTTTCCTAATCTTTCTGTTCAAGCGCCATCTAC	0.551
GATGATTGTTCTCCCAGCTGATGAATTGACTACGTCGAGTAAACAAATTTTCCTAATCTTTCTGTTCAAGCGCCATCTAC	0.34
GATGATTGTTCTCCCAGCTGATGAATTCTCGAGCTCGAGTAAACAAATTTTCCTAATCTTTCTGTTCAAGCGCCATCTAC	0.189
GATGATTGTTCTCCCAGCTGATGAATTACATACTTCGAGTAAACAAATTTTCCTAATCTTTCTGTTCAAGCGCCATCTAC	0.596
GATGATTGTTCTCCCAGCTGATGAATTAGGCCGATCGAGTAAACAAATTTTCCTAATCTTTCTGTTCAAGCGCCATCTAC	0.531
GATGATTGTTCTCCCAGCTGATGAATTGGAACGGTCGAGTAAACAAATTTTCCTAATCTTTCTGTTCAAGCGCCATCTAC	0.199
GATGATTGTTCTCCCAGCTGATGAATTGAAAGGCTCGAGTAAACAAATTTTCCTAATCTTTCTGTTCAAGCGCCATCTAC	0.275
